Results are given in words; binding and its absence hold for the method and conditions named. For part of these data: In cells and extracts the contact can be indirect. Some binding calls cover weakened binding; strength is not graded here.
Columns and labels:
[1] = molecular target: C-terminally FLAG tagged CBFB (human) (UniProt Q13951); experiment: co-IP; FLAG IP from cells expressing FLAG tagged CBFB followed by immunoblot; 10 µg/ml RNase A in the lysate
[2] = molecular target: N-terminally FLAG tagged CBFB (human) (UniProt Q13951); experiment: as above
[3] = molecular target: CBFB (core binding factor subunit beta), endogenous (human (endogenous in MCF10A)) (UniProt Q13951); experiment: co-IP; endogenous co-IP of CBFB and hnRNPK, cytoplasmic fraction (Supplementary Fig. 4d)
[4] = molecular target: CBFB (core binding factor subunit beta), endogenous (human (endogenous in MCF10A)) (UniProt Q13951); experiment: co-IP; endogenous co-IP followed by immunoblot; 10 µg/ml RNase A added in the co-IP lysate (Fig. 6b)
[5] = molecular target: CBFB (core binding factor subunit beta), endogenous (human (endogenous in MCF10A)) (UniProt Q13951); experiment: co-IP; endogenous co-IP of CBFB and hnRNPK, nuclear fraction (Supplementary Fig. 4d)
recombinant hnRNPK = recombinant hnRNPK (UniProt P61978); experiment: pull-down; RNA pulldown assay (RPA): biotin labeled RUNX1 mRNA on M-280 Dynabeads, recombinant CBFB in the absence or presence of recombinant hnRNPK; western blotting; both purified

Substance | binding [1] | binding [2] | binding [3] | binding [4] | binding [5] | binding (recombinant hnRNPK)
hnRNPK (from UniProt P61978 1-463) | binds | binds | binds | binds | no binding (condition: in the nuclear fraction) | 
recombinant CBFB (from UniProt Q13951 1-182) |  |  |  |  |  | binds
